Data published in paper PMC12491506.
Positions count from the first letter of the chain named. No constants are given. Whether binding was seen depends on the method and setting. In cells and extracts the contact can be indirect. Some binding calls cover weakened binding; strength is not graded here. Where a sequence is shown, tags or fusion partners need not be part of it.

Legend:
Assay in all cases: co-IP; GFP-trap from lysates of HEK293T cells transfected with GFP-tagged LRMDA or its mutants, endogenous partners on blots (Figs 2C, 2D, 3B, 4E); lysis in 0.5% NP-40, 100 mM Tris-HCl pH 7.5 in PBS; 1 h at 4 °C
[1] = molecular target: T1, GFP-LRMDA^127-226 (human)
T1 sequence: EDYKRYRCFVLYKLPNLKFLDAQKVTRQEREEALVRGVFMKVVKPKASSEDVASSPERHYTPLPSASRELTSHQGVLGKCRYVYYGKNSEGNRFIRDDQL

[2] = molecular target: T2, GFP-LRMDA R222stop (human)
T2 sequence: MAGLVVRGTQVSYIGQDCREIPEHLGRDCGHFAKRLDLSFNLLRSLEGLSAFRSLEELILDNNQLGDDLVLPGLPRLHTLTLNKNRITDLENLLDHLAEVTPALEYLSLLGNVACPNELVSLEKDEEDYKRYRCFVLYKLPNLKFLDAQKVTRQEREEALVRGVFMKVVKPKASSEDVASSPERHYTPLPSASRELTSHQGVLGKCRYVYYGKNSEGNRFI

GFP-LRMDA I221A (human) = molecular target: T3, GFP-LRMDA I221A (human)
T3 sequence: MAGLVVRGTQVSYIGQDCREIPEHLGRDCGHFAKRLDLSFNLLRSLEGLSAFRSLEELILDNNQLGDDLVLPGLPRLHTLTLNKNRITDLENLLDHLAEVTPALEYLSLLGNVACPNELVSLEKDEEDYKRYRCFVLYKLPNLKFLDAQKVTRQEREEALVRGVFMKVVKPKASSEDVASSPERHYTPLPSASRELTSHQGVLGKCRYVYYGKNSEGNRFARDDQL

GFP-LRMDA N117K (human) = molecular target: T4, GFP-LRMDA N117K (human)
T4 sequence: T3 sequence with N117K, A221I

GFP-LRMDA G217S (human) = molecular target: T5, GFP-LRMDA G217S (human)
T5 sequence: T3 sequence with G217S, A221I

[3] = molecular target: T6, GFP-LRMDA Y208stop (human)
T6 sequence: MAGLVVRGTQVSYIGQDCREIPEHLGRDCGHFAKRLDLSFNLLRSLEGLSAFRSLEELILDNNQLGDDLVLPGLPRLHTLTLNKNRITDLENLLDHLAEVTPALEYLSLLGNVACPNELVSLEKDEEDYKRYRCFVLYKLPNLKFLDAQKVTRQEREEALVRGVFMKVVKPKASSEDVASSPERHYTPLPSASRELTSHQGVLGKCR

GFP-LRMDA (human) = molecular target: T7, GFP-LRMDA (human)
T7 sequence: T3 sequence with A221I

B1: RAB32 (endogenous) (protein, UniProt Q13637 1-225)
chain: MAGGGAGDPGLGAAAAPAPETREHLFKVLVIGELGVGKTSIIKRYVHQLFSQHYRATIGVDFALKVLNWDSRTLVRLQLWDIAGQERFGNMTRVYYKEAVGAFVVFDISRSSTFEAVLKWKSDLDSKVHLPNGSPIPAVLLANKCDQNKDSSQSPSQVDQFCKEHGFAGWFETSAKDNINIEEAARFLVEKILVNHQSFPNEENDVDKIKLDQETLRAENKSQCC
With B1 the binding [1] was “no binding”, the binding [2] was “binds” and the binding (GFP-LRMDA I221A (human)) was “binds”. For the same binder, the binding (GFP-LRMDA N117K (human)) was “no binding”, the binding (GFP-LRMDA G217S (human)) was “binds” and the binding [3] was “binds”. The binding (GFP-LRMDA (human)) was “binds”.
